Not every detail of the peptide structures is certain; ends, links or a residue may be inferred. *1 amine or outer side, *2 acyl side, *3 side chain or, on linkers, in order; H or OH if unused. Where a SMILES comes first, the peptide text is derived from it. [ ]: non-standard residue; d: D form. The star is where a group is joined. NMeW = CN[C@@H](Cc1c[nH]c2ccccc12)C(=O)O; 2Nal = N[C@@H](Cc1ccc2ccccc2c1)C(=O)O; d2Nal = N[C@H](Cc1ccc2ccccc2c1)C(=O)O; Lys(iPr) = CC(C)NCCCC[C@H](N)C(=O)O; Ethylenediamine = C(CN[*:2])N[*:1]; NH(CH2)5NH2 = NCCCCCN*; Aib = CC(C)(N)C(=O)O
Test system: Pentobarbital Anesthetized Rats
Assay: In vivo GH release in rats, i.v. injection, serum GH by RIA
Parameters: species or system rat (immature female Sprague-Dawley)
Conditions: mean ± SEM
[1] = total dose 0.3 μg i.v., *Dissolved in DMSO, sacrificed 10 minutes after final injection
[2] = total dose 1.0 μg i.v., *Dissolved in DMSO, sacrificed 10 minutes after final injection
[3] = total dose 3.0 μg i.v., *Dissolved in DMSO, sacrificed 10 minutes after final injection
[4] = total dose 0.1 μg i.v., rats sacrificed 10 minutes after final injection
[5] = total dose 0.3 μg i.v., rats sacrificed 10 minutes after final injection
[6] = total dose 1.0 μg i.v., rats sacrificed 10 minutes after final injection
[7] = total dose 3.0 μg i.v., rats sacrificed 10 minutes after final injection
[8] = total dose 10.0 μg i.v., rats sacrificed 10 minutes after final injection
[9] = total dose 30.0 μg i.v., *Dissolved in DMSO, sacrificed 10 minutes after final injection

Structure (SMILES) | GH Released Serum GH ng/ml + SEM (N = 6) (total dose 0.1 μg i.v., *Dissolved in DMSO, sacrificed 10 minutes after final injection) [ng/mL] | GH Released Serum GH ng/ml + SEM (N = 6) [1] [ng/mL] | GH Released Serum GH ng/ml + SEM (N = 6) [2] [ng/mL] | GH Released Serum GH ng/ml + SEM (N = 6) [3] [ng/mL] | GH Released Serum GH ng/ml + SEM (N = 6) [4] [ng/mL] | GH Released Serum GH ng/ml + SEM (N = 6) [5] [ng/mL] | GH Released Serum GH ng/ml + SEM (N = 6) [6] [ng/mL] | GH Released Serum GH ng/ml + SEM (N = 6) [7] [ng/mL] | GH Released Serum GH ng/ml + SEM (N = 6) [8] [ng/mL] | GH Released Serum GH ng/ml + SEM (N = 6) [9] [ng/mL]
C[C@H](NC(=O)[C@@H](Cc1ccc2ccccc2c1)NC(=O)C(C)(C)N)C(=O)N[C@@H](Cc1c[nH]c2ccccc12)C(=O)N[C@H](Cc1ccccc1)C(=O)N[C@@H](CCCCN)C(N)=O [Aib-DβNal--Ala--Trp-DPhe--Lys--NH2] (H-[Aib][d2Nal]AW[dF]K-NH2) | 269 ± 58 | 331 ± 108 | 368 ± 133 | 1090 ± 176 | – | – | – | – | – | –
C[C@H](N)C(=O)N[C@H](Cc1ccc2ccccc2c1)C(=O)N[C@@H](C)C(=O)N(C)[C@@H](Cc1c[nH]c2ccccc12)C(=O)N[C@H](Cc1ccccc1)C(=O)N[C@@H](CCCCN)C(N)=O [Ala-DβNal--Ala--NMeTrp-DPhe--Lys--NH2] (H-A[d2Nal]A[NMeW][dF]K-NH2) | – | – | – | – | 144 ± 20 | 258 ± 28 | 261 ± 24 | 277 ± 85 | – | –
C[C@H](N)C(=O)N[C@H](Cc1ccc2ccccc2c1)C(=O)N[C@@H](C)C(=O)N[C@@H](Cc1c[nH]c2ccccc12)C(=O)N[C@H](Cc1ccccc1)C(=O)N[C@@H](CCCCN)C(N)=O [Ala-DβNal--Ala--Trp-DPhe--Lys--NH2] (H-A[d2Nal]AW[dF]K-NH2) | – | – | – | – | – | 363 ± 73 | 1450 ± 294 | 2072 ± 208 | 2698 ± 369 | –
C[C@H](N)C(=O)N[C@H](Cc1ccc2ccccc2c1)C(=O)N[C@@H](C)C(=O)N[C@@H](Cc1c[nH]c2ccccc12)C(=O)N[C@H](Cc1ccccc1)C(=O)NCCCCCN [Ala-DβNal--Ala--Trp-DPhe--NHCH2 CH2 CH2 CH2 CH NH2] (H-A[d2Nal]AW[dF]-{NH(CH2)5NH2}) | – | 284 ± 132 | 527 ± 166 | 816 ± 289 | – | – | – | – | – | 3650 ± 772
C[C@H](N)C(=O)N[C@H](Cc1ccc2ccccc2c1)C(=O)N[C@@H](C)C(=O)N[C@@H](Cc1c[nH]c2ccccc12)C(=O)N[C@H](Cc1ccccc1)C(=O)NCCN [Ala-DβNal--Ala--Trp-DPhe--NHCH2 CH2 NH2] (H-A[d2Nal]AW[dF]-Ethylenediamine) | – | 211 ± 27 | 468 ± 127 | 877 ± 325 | – | – | – | – | – | 2325 ± 477
COC(=O)[C@@H](Cc1ccccc1)NC(=O)[C@H](Cc1c[nH]c2ccccc12)NC(=O)[C@H](C)NC(=O)[C@@H](Cc1ccc2ccccc2c1)NC(=O)[C@H](C)N [Ala-DβNal--Ala--Trp-DPhe--OMe] (H-A[d2Nal]AW[dF]-OMe) | – | 211 ± 48 | 157 ± 35 | 492 ± 147 | – | – | – | – | – | 554 ± 127
CC(C)NCCCC[C@H](NC(=O)[C@@H](Cc1ccccc1)NC(=O)[C@H](Cc1c[nH]c2ccccc12)NC(=O)[C@H](C)NC(=O)[C@@H](Cc1ccc2ccccc2c1)NC(=O)[C@@H](C)N)C(N)=O [D-Ala-DβNal--Ala--Trp--DPhe--Lys(.xi.1Pr)--NH2] (H-[dA][d2Nal]AW[dF][Lys(iPr)]-NH2) | – | – | – | – | 608 ± 115 | 1753 ± 419 | 1817 ± 297 | 2336 ± 196 | – | –
C[C@H](NC(=O)[C@@H](Cc1ccc2ccccc2c1)NC(=O)[C@@H](C)N)C(=O)N[C@@H](Cc1c[nH]c2ccccc12)C(=O)N[C@H](Cc1ccccc1)C(=O)NCCCCCN [D-Ala-DβNal--Ala--Trp-DPhe--NHCH2 CH2 CH2 CH2 CH2 NH2] (H-[dA][d2Nal]AW[dF]-{NH(CH2)5NH2}) | – | – | – | – | – | 180 ± 37 | 686 ± 135 | 1490 ± 179 | 2248 ± 70 | –
CC(C)C[C@@H](N)C(=O)N[C@H](Cc1ccc2ccccc2c1)C(=O)N[C@@H](C)C(=O)N[C@@H](Cc1c[nH]c2ccccc12)C(=O)N[C@H](Cc1ccccc1)C(=O)N[C@@H](CCCCN)C(N)=O [D-Leu-DβNal--Ala--Trp-DPhe--Lys--NH2] (H-[dL][d2Nal]AW[dF]K-NH2) | – | – | – | – | 256 ± 94 | 452 ± 49 | 355 ± 94 | – | – | –
C[C@H](NC(=O)[C@@H](Cc1ccc2ccccc2c1)NC(=O)[C@H](N)Cc1c[nH]c2ccccc12)C(=O)N[C@@H](Cc1c[nH]c2ccccc12)C(=O)N[C@H](Cc1ccccc1)C(=O)N[C@@H](CCCCN)C(N)=O [D-Trp-DβNal--Ala--Trp-DPhe--Lys--NH 2] (H-[dW][d2Nal]AW[dF]K-NH2) | – | – | – | – | 226 ± 61 | 245 ± 27 | 437 ± 62 | – | – | –
C[C@H](NC(=O)[C@@H](Cc1c[nH]c2ccccc12)NC(=O)[C@@H](C)N)C(=O)N[C@@H](Cc1c[nH]c2ccccc12)C(=O)N[C@H](Cc1ccccc1)C(=O)N[C@@H](CCCCN)C(N)=O [DAla-DTrp--Ala--Trp-DPhe--Lys--NH2] (H-[dA][dW]AW[dF]K-NH2) | – | – | – | – | 526 ± 86 | 1608 ± 204 | 2820 ± 346 | 2437 ± 214 | – | –
C[C@H](NC(=O)[C@H](Cc1ccc2ccccc2c1)NC(=O)[C@@H](C)N)C(=O)N[C@@H](Cc1c[nH]c2ccccc12)C(=O)N[C@H](Cc1ccccc1)C(=O)N[C@@H](CCCCN)C(N)=O [DAla-LβNal--Ala--Trp-DPhe--Lys--NH2] (H-[dA][2Nal]AW[dF]K-NH2) | – | – | – | – | 263 ± 45 | 315 ± 85 | 426 ± 41 | – | – | –
C[C@H](NC(=O)[C@@H](Cc1ccc2ccccc2c1)NC(=O)[C@H](N)CC(N)=O)C(=O)N[C@@H](Cc1c[nH]c2ccccc12)C(=O)N[C@H](Cc1ccccc1)C(=O)N[C@@H](CCCCN)C(N)=O [DAsn-DβNal--Ala--Trp-DPhe--Lys--NH2] (H-[dN][d2Nal]AW[dF]K-NH2) | – | – | – | – | 122 ± 38 | 195 ± 21 | 197 ± 47 | – | – | –
C[C@H](NC(=O)[C@@H](Cc1ccc2ccccc2c1)NC(=O)[C@H](N)Cc1c[nH]cn1)C(=O)N[C@@H](Cc1c[nH]c2ccccc12)C(=O)N[C@H](Cc1ccccc1)C(=O)N[C@@H](CCCCN)C(N)=O [DHis-DβNal--Ala--Trp-DPhe--Lys--NH2] (H-[dH][d2Nal]AW[dF]K-NH2) | – | – | – | – | 386 ± 81 | 605 ± 82 | 930 ± 96 | – | – | –
C[C@H](NC(=O)[C@@H](Cc1ccc2ccccc2c1)NC(=O)[C@H](N)CCCCN)C(=O)N[C@@H](Cc1c[nH]c2ccccc12)C(=O)N[C@H](Cc1ccccc1)C(=O)N[C@@H](CCCCN)C(N)=O [DLys-DβNal--Ala--Trp-DPhe--Lys--NH2] (H-[dK][d2Nal]AW[dF]K-NH2) | – | – | – | – | 262 ± 31 | 340 ± 86 | 335 ± 56 | – | – | –
